# In the supplement of paper PMC8728848:
# The list shows a part of the results.
# What was measured:
# Test in all cases: glycan array binding signal (z-score within array); higher = stronger binding
# Details in all cases: glycan notation: IUPAC condensed, linker removed
# [1] = target: Fuc(a1-3)[Gal(b1-4)]GlcNAc(b1-4)Gal(b1-4)[Fuc(a1-3)]GlcNAc
# How it was run: (§1)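 From the Consortium for Functional Glycomics database, 3228 arrays were curated, keeping only those whose protein sequence was available. Binding is given as a within-array Z-score averaged across arrays sharing a protein sequence and across linkers. Negative Z-scores can be read as non-binding.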
# [2] = target: Fuc(a1-3)[Gal(b1-4)]GlcNAc(b1-4)Gal(b1-4)[Fuc(a1-3)]GlcNAc(b1-4)Gal(b1-4)[Fuc(a1-3)]GlcNAc
# How it was run: as §1
# [3] = target: Fuc(a1-3)[Gal(b1-4)]GlcNAc(b1-6)GalNAc
# How it was run: as §1
# [4] = target: Fuc(a1-3)[Gal(b1-4)]GlcNAc(b1-6)[Gal(b1-3)GlcNAc(b1-3)]Gal(b1-4)Glc
# How it was run: as §1
# [5] = target: Fuc(a1-3)[Gal(b1-4)]GlcNAc(b1-6)[Neu5Ac(a2-3)Gal(b1-3)]GalNAc
# How it was run: as §1
# [6] = target: Fuc(a1-3)[Gal(b1-4)]GlcNAc6S
# How it was run: as §1
# [7] = target: Fuc(a1-3)[Gal3S(b1-4)]GlcNAc
# How it was run: as §1
# [8] = target: Fuc(a1-3)[Gal3S(b1-4)]GlcNAc6S
# How it was run: as §1
# [9] = target: Fuc(a1-3)[GalNAc(b1-4)]GlcNAc
# How it was run: as §1
# [10] = target: Fuc(a1-3)[GalNAc(b1-4)]GlcNAc6S
# How it was run: as §1
# [11] = target: Fuc(a1-3)[GalNAc3S(b1-4)]GlcNAc
# How it was run: as §1
# Fuc(a1-4)GlcNAc = target: Fuc(a1-4)GlcNAc
# How it was run: as §1
# Fuc(b1-3)GlcNAc = target: Fuc(b1-3)GlcNAc
# How it was run: as §1
# Gal(a1-2)Gal = target: Gal(a1-2)Gal
# How it was run: as §1
# Gal(a1-3)Gal = target: Gal(a1-3)Gal
# How it was run: as §1
# Gal(a1-3)Gal(b1-3)GlcNAc = target: Gal(a1-3)Gal(b1-3)GlcNAc
# How it was run: as §1
# [12] = target: Gal(a1-3)Gal(b1-3)GlcNAc(b1-2)Man(a1-3)[Gal(a1-3)Gal(b1-3)GlcNAc(b1-2)Man(a1-6)]Man(b1-4)GlcNAc(b1-4)GlcNAc
# How it was run: as §1
# [13] = target: Gal(a1-3)Gal(b1-3)GlcNAc(b1-3)GalNAc
# How it was run: as §1
# [14] = target: Gal(a1-3)Gal(b1-3)GlcNAc(b1-6)GalNAc
# How it was run: as §1
# [15] = target: Gal(a1-3)Gal(b1-3)[Fuc(a1-4)]GlcNAc(b1-2)Man(a1-3)[Gal(a1-3)Gal(b1-3)[Fuc(a1-4)]GlcNAc(b1-2)Man(a1-6)]Man(b1-4)GlcNAc(b1-4)GlcNAc
# How it was run: as §1
# Gal(a1-3)Gal(b1-4)Glc = target: Gal(a1-3)Gal(b1-4)Glc
# How it was run: as §1
# Gal(a1-3)Gal(b1-4)GlcNAc = target: Gal(a1-3)Gal(b1-4)GlcNAc
# How it was run: as §1
# [16] = target: Gal(a1-3)Gal(b1-4)GlcNAc(b1-3)GalNAc
# How it was run: as §1
# [17] = target: Gal(a1-3)Gal(b1-4)GlcNAc(b1-6)GalNAc
# How it was run: as §1
# [18] = target: Gal(a1-3)Gal(b1-4)[Fuc(a1-3)]GlcNAc
# How it was run: as §1
# [19] = target: Gal(a1-3)Gal(b1-4)[Fuc(a1-3)]GlcNAc(b1-2)Man(a1-3)[Gal(a1-3)Gal(b1-4)[Fuc(a1-3)]GlcNAc(b1-2)Man(a1-6)]Man(b1-4)GlcNAc(b1-4)GlcNAc
# How it was run: as §1
# Gal(a1-3)GalNAc = target: Gal(a1-3)GalNAc
# How it was run: as §1
# [20] = target: Gal(a1-3)[Gal(a1-4)]Gal(b1-4)GlcNAc
# How it was run: as §1
# [21] = target: Gal(a1-4)Gal(b1-3)GlcNAc(b1-2)Man(a1-3)[Gal(a1-4)Gal(b1-3)GlcNAc(b1-2)Man(a1-6)]Man(b1-4)GlcNAc(b1-4)GlcNAc
# How it was run: as §1
# Gal(a1-4)Gal(b1-4)Glc = target: Gal(a1-4)Gal(b1-4)Glc
# How it was run: as §1
binder,measurement,setting,value
"CvGal1 (Crassostrea virginica), A7Y0I5 (protein) MTYQISKISQPFTSYIPNGLHIGKHLLLRGRVSYGTEAFAINLQQNPEPCNGEVAFHFNPRPGEQQCVRNSFDGGSWMDEERDQPHFPFDEGRSFTLRIEVAEEGFRTYVNGKPYVNFSHRLDLGNVHYLYLTEGAEFYDISYQDRYTLPYKSEIPQQMNVGKAVRIRGASQDNDGFSVNFACDPDNENCAFHFNPRPNEGVVVRNANLGGWGDEERDYEAEFPFHPYNYFDAMFICTDDKYLVHVNDKYFTEFNHRGGVDASSFFNIVGNLDIQDVEYFEPLEDDFVKTIPSGLVKGDVLIFRGFMKPGGDTFSINFMNGYSVEDDIAFHLNPRVGEGQVVMNCCMGGAWGDEEREDIPSPLADREPFEVKVVVKKNKFKVYVNGKKCMKFAARGNLEDIKGVNIKGEAYVYEVKLERKLEDSWEYLPGGFRVGGWVVVQAIPKKGSEGFAINFRTGSDEDSDIAFHFNPRLQENCTIRNSCAGGAWGGEERDQPDFPFEKKDTCEIAIQAQPDRFVTYVNGKRYIEFNHRLPLESITCVELTGRADFFEPKFF",glycan array binding signal (z-score),[1],-0.258
same,glycan array binding signal (z-score),[2],-0.261
same,glycan array binding signal (z-score),[3],-0.278
same,glycan array binding signal (z-score),[4],-0.299
same,glycan array binding signal (z-score),[5],-0.259
same,glycan array binding signal (z-score),[6],-0.279
same,glycan array binding signal (z-score),[7],-0.246
same,glycan array binding signal (z-score),[8],-0.255
same,glycan array binding signal (z-score),[9],-0.115
same,glycan array binding signal (z-score),[10],-0.215
same,glycan array binding signal (z-score),[11],-0.259
same,glycan array binding signal (z-score),Fuc(a1-4)GlcNAc,-0.286
same,glycan array binding signal (z-score),Fuc(b1-3)GlcNAc,-0.219
same,glycan array binding signal (z-score),Gal(a1-2)Gal,-0.281
same,glycan array binding signal (z-score),Gal(a1-3)Gal,-0.278
same,glycan array binding signal (z-score),Gal(a1-3)Gal(b1-3)GlcNAc,0.435
same,glycan array binding signal (z-score),[12],-0.268
same,glycan array binding signal (z-score),[13],-0.251
same,glycan array binding signal (z-score),[14],-0.168
same,glycan array binding signal (z-score),[15],-0.241
same,glycan array binding signal (z-score),Gal(a1-3)Gal(b1-4)Glc,-0.211
same,glycan array binding signal (z-score),Gal(a1-3)Gal(b1-4)GlcNAc,0.242
same,glycan array binding signal (z-score),[16],-0.197
same,glycan array binding signal (z-score),[17],-0.267
same,glycan array binding signal (z-score),[18],-0.177
same,glycan array binding signal (z-score),[19],0.004
same,glycan array binding signal (z-score),Gal(a1-3)GalNAc,-0.253
same,glycan array binding signal (z-score),[20],-0.215
same,glycan array binding signal (z-score),[21],-0.237
same,glycan array binding signal (z-score),Gal(a1-4)Gal(b1-4)Glc,-0.289
